Laboratory results published in patent publication US20250230211A1 (NANTCELL, published 2025).

T1: human CTLA4 (human, UniProt P16410 36-161)
T1 sequence (looked up): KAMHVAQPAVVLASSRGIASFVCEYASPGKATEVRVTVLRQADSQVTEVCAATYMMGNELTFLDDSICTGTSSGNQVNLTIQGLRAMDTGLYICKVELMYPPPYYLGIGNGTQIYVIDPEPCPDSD

T2: IL-2Rβ (UniProt P14784 27-240, limits assumed)
T2 construct: also called IL2RB
T2 sequence (looked up): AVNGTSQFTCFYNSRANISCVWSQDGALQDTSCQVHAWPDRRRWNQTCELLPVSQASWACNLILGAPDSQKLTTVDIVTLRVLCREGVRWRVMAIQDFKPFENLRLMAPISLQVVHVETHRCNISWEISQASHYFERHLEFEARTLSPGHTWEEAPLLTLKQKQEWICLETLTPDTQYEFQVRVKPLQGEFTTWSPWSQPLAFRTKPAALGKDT

B1: IL-15/αCTLA4 (N-844-4) (other)
heavy: ITCPPPMSVEHADIWVKSYSLYSRERYICNSGFKRKAGTSSLTECVLNKATNVAHWTTPSLKCIRGGGGSGGGGSGGGGSEVQLVESGGGLVQPGGSLRLSCAASGFTFTSYSMHWVRQAPGKGLEWVSGISGSGRSTSYADSVKGRFTISRDNSKNTLYLQMNSLRAEDTAVYYCARDLMAFNLVRAGGFDVWGQGTLVTVSS[sequence of human IgG1 constant region omitted]
light: DIQMTQSPSSLSASVGDRVTITCQASQDISNYLNWYQQKPGKAPKLLIYDASNLETGVPSRFSGSGSGTDFTFTISSLQPEDIATYYCQQGDAWPWTFGQGTKVEIKRTVAAPSVFIFPPSDEQLKSGTASVVCLLNNFYPREAKVQWKVDNALQSGNSQESVTEQDSKDSTYSLSSTLTLSKADYEKHKVYACEVTHQGLSSPVTKSFNRGEC
chain: [sequence of about 120 residues omitted]
B2: αCTLA4/IL-15 (N-844-5) (other)
heavy: EVQLVESGGGLVQPGGSLRLSCAASGFTFTSYSMHWVRQAPGKGLEWVSGISGSGRSTSYADSVKGRFTISRDNSKNTLYLQMNSLRAEDTAVYYCARDLMAFNLVRAGGFDVWGQGTLVTVSS[sequence of human IgG1 constant region omitted]GGGGSGGGGSGGGGSITCPPPMSVEHADIWVKSYSLYSRERYICNSGFKRKAGTSSLTECVLNKATNVAHWTTPSLKCIR
light: DIQMTQSPSSLSASVGDRVTITCQASQDISNYLNWYQQKPGKAPKLLIYDASNLETGVPSRFSGSGSGTDFTFTISSLQPEDIATYYCQQGDAWPWTFGQGTKVEIKRTVAAPSVFIFPPSDEQLKSGTASVVCLLNNFYPREAKVQWKVDNALQSGNSQESVTEQDSKDSTYSLSSTLTLSKADYEKHKVYACEVTHQGLSSPVTKSFNRGEC
chain: [sequence of about 120 residues omitted]

Assays:
Assay in all cases: SPR, fusion protein captured by anti-human IgG Fc, analyte by OneStep injection at 40 nM and 20 nM
[1] = molecular target: T1, human CTLA4
Experimental: (§1) Surface plasmon resonance (SPR) studies were conducted with the purified fusion proteins to assess their binding affinities to relevant targets. The SPR kinetic assay was performed by immobilizing rabbit α-human IgG Fc antibodies (Thermo) on a PCH sensor (Sartorius) as the capture molecule. All molecules of interest were then captured on the sensor surface by α-IgG1-Fc and Fc domain interaction. Binding kinetics against IL-2Rβ, human CTLA4, and murine CTLA4 were determined by OneStep injection at 40 nM and 20 nM of each analyte. […] The αCTLA4-scFv has higher affinity to CTLA4 than when the binding domain is in IgG form.

[2] = molecular target: T3, murine CTLA4 (murine, UniProt P09793 36-161, limits assumed)
T3 construct: also called Mouse CTLA4
Experimental: as §1

[3] = molecular target: T2, IL-2Rβ
Experimental: as §1

Row | Binder | Kd [1] | Kd [2] | Kd [3]
1 | B1 | 1.2 to 1.3 nM | 2 to 3.4 nM | 1.7 nM
2 | B2 | 1.2 to 1.4 nM | 2.1 to 2.6 nM | 1.9 nM
